Assay results: paper PMC4336329 (PLoS ONE, 2015)
Hit rate of the full screen: of about 310,000 compounds, about 2,200 (0.71%) showed an effect of 50% or more. The effect is printed as a negative number. This is one part of the list.

Each compound was assayed against human ether-à-go-go-related gene (hERG) potassium channel (human, UniProt Q12809) (assay: primary screen, population patch clamp on CHO cells stably expressing hERG).
Chain of human ether-à-go-go-related gene (hERG) potassium channel (Q12809 whole entry, looked up): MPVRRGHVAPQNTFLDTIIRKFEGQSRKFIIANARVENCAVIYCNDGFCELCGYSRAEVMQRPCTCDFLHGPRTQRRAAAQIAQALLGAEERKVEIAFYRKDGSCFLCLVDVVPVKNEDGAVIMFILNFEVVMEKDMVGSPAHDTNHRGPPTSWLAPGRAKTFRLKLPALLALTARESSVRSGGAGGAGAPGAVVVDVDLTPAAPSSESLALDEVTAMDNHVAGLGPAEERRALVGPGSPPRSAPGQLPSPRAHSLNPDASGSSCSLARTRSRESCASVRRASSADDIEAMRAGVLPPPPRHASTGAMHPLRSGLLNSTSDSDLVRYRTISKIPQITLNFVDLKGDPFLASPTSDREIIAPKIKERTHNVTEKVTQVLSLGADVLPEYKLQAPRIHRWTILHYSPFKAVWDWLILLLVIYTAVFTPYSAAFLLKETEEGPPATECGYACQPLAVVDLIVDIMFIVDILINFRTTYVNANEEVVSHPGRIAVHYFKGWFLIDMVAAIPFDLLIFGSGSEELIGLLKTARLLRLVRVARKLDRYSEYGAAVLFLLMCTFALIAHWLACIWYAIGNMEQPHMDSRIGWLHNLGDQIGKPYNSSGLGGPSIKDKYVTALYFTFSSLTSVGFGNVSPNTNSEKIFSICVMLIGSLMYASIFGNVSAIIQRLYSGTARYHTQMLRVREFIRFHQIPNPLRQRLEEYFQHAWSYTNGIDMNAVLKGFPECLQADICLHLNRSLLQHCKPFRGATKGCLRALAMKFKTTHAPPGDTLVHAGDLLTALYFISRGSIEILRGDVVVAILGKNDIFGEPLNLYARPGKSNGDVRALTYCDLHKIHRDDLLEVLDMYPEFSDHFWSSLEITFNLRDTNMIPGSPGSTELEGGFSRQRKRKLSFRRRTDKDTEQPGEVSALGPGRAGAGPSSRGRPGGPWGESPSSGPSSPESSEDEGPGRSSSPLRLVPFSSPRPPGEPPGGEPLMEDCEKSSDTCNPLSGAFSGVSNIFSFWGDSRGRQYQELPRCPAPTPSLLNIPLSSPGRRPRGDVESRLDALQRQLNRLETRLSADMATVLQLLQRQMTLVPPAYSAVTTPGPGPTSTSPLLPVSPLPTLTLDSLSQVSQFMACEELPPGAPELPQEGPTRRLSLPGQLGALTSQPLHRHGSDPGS

SMILES | hERG current change (%, negative = inhibition) at 1uM [%]
CCNC(=S)N1CCC(n2cnc3ccccc32)CC1 | 5.85
CCN(CC)c1ccc([C@H]2[C@@H]3CCCC[C@]3(O)CCN2CC(=O)NCc2ccco2)cc1 | 4.53
CC(=O)C1=C(C)N(c2ccccc2)C(=O)C1(NS(=O)(=O)c1ccc(N)cc1)C(F)(F)F (centres unmarked) | 14.2
Cc1ccc(/C=C2\SC(=S)N(CCCC(=O)Nc3cccnc3)C2=O)cc1 | 13.2
O=C(Nc1ccc(Br)cc1)N1C[C@H]2C[C@@H](C1)c1cccc(=O)n1C2 | 5.14
Cc1cc(C)c(NC(=O)COC(=O)C2CCC2)c(Cl)c1 | 13.1
CC1=C(C(=O)OC(C)C)C(c2ccccc2)NC(=O)N1C (centres unmarked) | 10.4
Cc1nn(CC(=O)N2CCCC2)c(=O)c2cc3cc(F)ccc3n12 | 16
Cc1cc(N/N=C/c2cccc(Cl)c2)nc(NCc2ccccc2)n1 | 6.28
O=C(c1cc([N+](=O)[O-])ccc1Cl)N1CCN(Cc2ccc3c(c2)OCO3)CC1 | 8.29
O=C(NCCc1ccccc1)c1ccc(Cl)c(S(=O)(=O)N2CCCC2)c1 | 10.3
CCOC(=O)c1oc2ccc(Br)cc2c1CSc1nnc(C)s1 | 15.1
COc1ccccc1CN1C[C@@H]2C[C@@H](c3cccc(O)c3)N3CCC[C@@]23C1=O | 0.386
CCOC(=O)c1sc(NC(=O)CSc2nc(-c3ccco3)cc(C(F)(F)F)n2)c(C#N)c1C | 4.36
O=C(N/N=C/c1cc2c(cc1Br)OCO2)C1COc2ccccc2O1 (centres unmarked) | 9.7
Cc1ccn(CC(C)C(=O)O)n1 (centres unmarked) | 11.2
O=[N+]([O-])c1ccccc1S(=O)(=O)Nc1cccc(-c2ccc3nncn3n2)c1 | -0.576
COc1ccc(NC(=S)NCCCN2CCN(C3CCCCC3)CC2)cc1 | -2.92
C/C(=N\OCc1nc2ccccc2c(=O)n1/N=C/c1cc(C)cc([N+](=O)[O-])c1O)c1ccccc1 | 4.34
CCc1ccc(OCCCC(=O)Nc2nccs2)cc1 | 8.02
CCN1C(=O)CSC1=NC1C2CC3CC(C2)CC1C3 (centres unmarked) | 15.3
CCn1c(SCC(=O)Nc2ccccc2Br)nnc1-c1cnccn1 | 4.44
COc1ccc(C(=O)Nc2ccc(NC(=O)C3CC3)cn2)cc1 | 10.2

SMILES | hERG current change (%, negative = inhibition) at 1uM [%]
Cc1ccc(S(=O)(=O)Nc2cccc(Oc3cnccn3)c2)cc1 | -2.34
Cc1ccc(NS(=O)(=O)c2cccc(C(=O)n3ncc(C#N)c3N)c2)c(C)c1 | -5.14
COc1ccc(CNC(=O)c2ccc3c(c2)N(C)C(=O)CS3=O)cc1 (centres unmarked) | 7.95
COC(=O)CCC(=O)NNC(=O)c1cccc(Cl)c1 | 6.3
Cc1cccc(N2CCN(C(=O)c3ccc(CS(=O)(=O)c4ccccc4C)o3)CC2C)c1 (centres unmarked) | 1.54
CCOC(=O)Cc1nnc(Nc2ccc(C(=O)NC)cc2)c2ccccc12 | 12.7
Cc1n[nH]c(=O)nc1NCc1ccccc1 | 12.5
Cc1cc(C(=O)N2CCN(Cc3ccccc3)CC2)on1 | 6.76
O=C(Nn1c(C2CCC2)nc2ccccc2c1=O)C1CCC1 | -0.591
Cc1ccc(C(=O)NC(C)c2ccc3c(c2)OCO3)s1 (centres unmarked) | -5.06
COc1ccc(OC)c(NC(=O)c2ccccc2N(C)S(=O)(=O)c2ccc(C)cc2)c1 | 21.3
COc1ccc(/C=C/C(=O)c2c(O)n(CCC3=CCCCC3)c(=O)[nH]c2=O)cc1OC | 10.1
O=C(/C=C/c1c(Cl)cccc1Cl)NCc1ccccc1 | 13.7
Cc1ccccc1NC(=O)C1C2CCC(O2)C1C(=O)O (centres unmarked) | 15.7
CCOP(=O)(OCC)C(Nc1cccc(C(F)(F)F)c1)c1ccc(F)cc1 (centres unmarked) | 4.76
CN(CCO)c1ncnc2nc[nH]c12 | -1.8
CN(c1cccc(NC(=O)CN(c2ccc(F)cc2)S(C)(=O)=O)c1)S(C)(=O)=O | 2.14
CC(=O)c1ccc(OCc2cc(C(=O)NC(C)Cc3ccccn3)no2)cc1 (centres unmarked) | 3.22
N#C/C(=C(/O)CSc1n[nH]c(N)n1)c1nc2ccccc2[nH]1 | 3.71
S=C(NCCc1ccc(Cl)cc1)NC1CCCCC1 | 7.17
O=C1c2ccccc2C(=O)c2c1cccc2N(CCO)CCO | 13.8
CCCc1cc(C(=O)Cc2ccccn2)c(O)cc1O | 8.83
Cc1cccc(CSc2nnc(-c3ccco3)n2C)c1 | 1.27

SMILES | hERG current change (%, negative = inhibition) at 1uM [%]
CCn1cc(C(=O)OCC(=O)N(C)Cc2ccccc2)c(=O)c2ccc(C)nc21 | 9.83
CSC1=NCCN1C(=O)Cc1ccc(Cl)cc1 | 8.21
COc1ccc(CCC(=O)NNC(=S)Nc2cccc(C(C)=O)c2)cc1 | 11.3
COc1ccc(/C=N\Nc2ccccn2)c(OC)c1 | 14.5
C#CC[N+](CC)(CC)CC#Cc1cccc(Cl)c1.[Br-] | 2.06
O=C(COc1ccccc1Cl)NCCCNC(=O)c1cnccn1 | 6.29
CCOC(=O)c1cc(NC(=O)c2ccc(C)cc2)c(=O)oc1C(F)(F)F | 6.59
CCc1ccccc1NC(=O)c1ccoc1C | 6.07
CCc1nc(SCC(=O)Nc2ccc(N(C)C)cc2)c2ccccc2n1 | 8.74
CCOC(=O)n1c(=O)n(Cc2ccccc2C)c2ccccc21 | 9.15
CC(C)CCN1C(=O)C2(OCCCO2)c2cc(Cl)ccc21 | 16.3
COc1ccccc1CNC(=O)C(=O)NCC1OCCN1S(=O)(=O)c1cccs1 (centres unmarked) | 7.5
Cc1ccc(OCC(=O)Nc2ccc3c(c2)nc(CCN2CCCCC2)n3C)cc1 | -60
CC1CCCC(C)N1CCCNC(=O)Cn1c(=O)c2cccn2c2cccnc21 (centres unmarked) | 9.52
O=C(COC(=O)c1cc(=O)[nH]c2ccccc12)Nc1nc(-c2ccccc2)cs1 | 11.6
CC1(C)Nc2ccccc2N(CCC(=O)N2CCOCC2)C1=O | 9.9
CCOC(=O)C1CCN(CC(C)(C)NS(=O)(=O)c2ccc(C)cc2)CC1 | 10.5
CCOC(=O)C1CCCN(Cc2ccc3c(c2)OCO3)C1 (centres unmarked) | 12.4
Cc1cccc(C(=O)Nc2ccc(S(=O)(=O)Nc3nc(C)cc(C)n3)cc2)c1 | 6.01
CCCn1cc(CN2CCCC(C(=O)c3cccc(OC)c3)C2)c(C)n1 (centres unmarked) | -14.5
Cc1cccc(NS(=O)(=O)c2csc(C(N)=O)c2)c1 | 14.4
Cc1ccc2c(CSc3nnc(C4CC4)n3N)cc(=O)oc2c1 | 1.13
CCNC(=O)CN1C(=O)NC2(CCCc3cc(OC)ccc32)C1=O (centres unmarked) | 1.93

SMILES | hERG current change (%, negative = inhibition) at 1uM [%]
CCCn1nnnc1NCc1cccn1C | 3.51
O=C(Nc1ccc(S(=O)(=O)Nc2ccc(Cl)cc2)cc1)C1CCCO1 (centres unmarked) | 8.93
Cc1sc2ncnc(N3CCC(C(=O)Nc4ccc(Cl)cc4Cl)CC3)c2c1C | 8.36
CCc1ccccc1NC(=O)C1CCCN1C(=O)NCc1ccccc1 (centres unmarked) | 17.3
CC(C)(Nc1ccccc1)C(=O)c1ccccc1 | 4.37
COc1ccc(C2N(c3ccc(F)cc3)C(=O)C3CCCN32)cc1 (centres unmarked) | -1.62
COc1ccc2nc(C)cc(SCC(=O)N/N=C/c3ccco3)c2c1 | 4.19
CNc1ncc(C(=O)c2ccc(-c3ccccc3)cc2)s1 | 15.8
O=C(CSc1ccc(-c2ccccn2)nn1)NCc1ccc(Cl)cc1 | 7.67
CCCC(=O)N1CCN(Cc2nc3cc([N+](=O)[O-])ccc3n2C)CC1 | 1.17
N#CCN=C(c1ccccc1)c1ccccc1 | 12.8
Cl.N=c1sccn1CC(=O)Nc1cccc(Oc2ccccc2)c1 | -17.4
COc1ccc(CNC(=O)CNC(=O)c2ccc(C(C)(C)C)cc2)cc1OC | 10.5
CC(SCC(=O)NC(C)C1CC2CCC1C2)C(=O)O (centres unmarked) | 3.95
COC(=O)c1c(NC(=O)C(C)C)sc2c1CCN(Cc1ccccc1)C2.Cl | 13.8
Cc1nc(C(C)NC(=O)CCc2nnc(Cc3c[nH]c4ccccc34)o2)cs1 (centres unmarked) | 24.1
Cc1occc1C(=O)n1nnc2ccccc21 | 2.28
Cc1ccc(NC2=C(N3CCCCC3)C(=O)c3ccccc3C2=O)cc1 | 15.4
COc1cccc(C2=CC(c3ccc(OC)c(OC)c3OC)n3nnnc3N2)c1 (centres unmarked) | 6.38
COc1ccc(CCNC(=O)CCN2C(=O)COc3ccccc32)cc1OC | 9.26
COc1cc(/C=C2\N=C3CCCCCN3C2=O)ccc1O | 10.1
COc1ccccc1/C=C/C(=O)NC(=S)NCC1CCCO1 (centres unmarked) | 6.12
Cc1cc(OCC(=O)NCc2ccncc2)ccc1Cl | 12.1
